Measured values from the supplement of paper PMC3334620.
In all, about 33,000 sequences were measured (“E-score (-0.5 to 0.5)”: median about -0.056, highest 2% from about 0.38 on). Some of the results follow.

target: Stb4 (UniProt P50104); experiment: PBM E-score (8-mer binding enrichment) (E-score (-0.5 to 0.5)); higher = stronger / more preferred TF binding; most listed sequences are background and not binding sites; conditions: protein concentration: 200 nM; construct: GST-DNA-binding domain
How it was run: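 Universal all-10-mer Agilent arrays, fresh or stripped once, were converted to double-stranded form by primer extension. GST-tagged yeast transcription factors from PURExpress in vitro transcription/translation, full-length or DNA-binding domain only, were applied at about 100-200 nM and detected with fluorescent anti-GST. After masliner normalisation, the Universal PBM Analysis Suite scored each ungapped eight-base word together with its reverse complement by E-score.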

Row | Sequence | PBM E-score
1 | GGGGAGTA | -0.0839
2 | AAAGGCCG | 0.0672
3 | GTGTCAAA | -0.04
4 | ACGAGACA | -0.11
5 | ATTCACTC | 0.0122
6 | AAAACCAA | -0.0185
7 | ACTGTTCT | -0.164
8 | ATGAATTA | -0.0639
9 | CCTACGTC | -0.0541
10 | CATTAACC | 0.0201
11 | ATCAGTCG | 0.018
12 | CATTCCCG | 0.328
13 | AGGAAACA | -0.0661
14 | AGGATAAA | -0.0635
15 | AATTCGCG | -0.0343
16 | ACCAACGC | 0.00824
17 | CTGATGGC | -0.0293
18 | ATTGTTAG | -0.172
19 | GTATTCTA | -0.18
20 | TAGCTCGA | -0.131
21 | AATTTGTA | 0.138
22 | CCTTCTGC | -0.17

Row | Sequence | PBM E-score
23 | GACGACCA | -0.2
24 | AATCAGCA | -0.244
25 | ACAACATA | -0.156
26 | CCATCACG | -0.063
27 | AGACTTGG | -0.155
28 | ACACGACC | -0.146
29 | GTAGTGCA | -0.128
30 | GAACTGTA | -0.0192
31 | CTGTCAAC | -0.237
32 | CTGCTCAC | -0.294
33 | CAAATAGG | -0.131
34 | GGCATCAA | -0.197
35 | ACCTGCGA | -0.196
36 | ATAGTTCC | 0.264
37 | AACTAACT | 0.0909
38 | GCCGGTAA | 0.306
39 | CCGGCCTC | 0.234
40 | CATCTCGA | -0.252
41 | TCAAAAGA | -0.149
42 | GCAGAACC | -0.0538
43 | CAAATTCG | 0.237
44 | GAATCTTA | -0.0785

Row | Sequence | PBM E-score
45 | ATAAGTGC | -0.0881
46 | CAAAACCA | -0.15
47 | GTCTCAAA | -0.0192
48 | GATTCACA | -0.094
49 | AAAACCTG | -0.253
50 | GTAGGGAA | -0.0829
51 | GTGGCTGA | -0.0157
52 | ACAGCTTC | 0.0141
53 | GTCTTACA | -0.193
54 | CAGTTTAG | -0.227
55 | CGGGATGA | 0.269
56 | CAAACCTC | -0.155
57 | CGTCCTGA | -0.249
58 | CCCTCGTC | 0.0826
59 | CTCAAAAC | -0.146
60 | CTCTAAGA | -0.00116
61 | GACTCAAA | -0.137
62 | CCTGCCCC | -0.147
63 | CCACTTAG | -0.241
64 | AACGCTCA | -0.229
65 | CTATTATC | 0.126
66 | CAAACACC | -0.056

Row | Sequence | PBM E-score
67 | ATTCCGGC | 0.354
68 | CAATCTGC | -0.0793
69 | GATGAGTA | -0.169
70 | CAGCGTCC | 0.0131
71 | CAAAATCC | 0.171
72 | ATAACCAA | -0.0585
73 | AAGTCACG | 0.00315
74 | ATAATCCC | 0.166
75 | AGCCACAA | -0.00236
76 | CCGATGGA | 0.27
77 | GAAGACAC | 0.0641
78 | CGTTTAAA | -0.12
79 | AATGCACG | 0.139
80 | AGTTTAGC | -0.0929
81 | CAGTTTAC | -0.127
82 | GACCTCGC | -0.169
83 | GAACTCGA | -0.115
84 | AGAAAAGA | -0.0685
85 | CACCAATG | -0.15
86 | AGAGTCGG | 0.183
